# According to the supplement of paper PMC3334620:
# Whole data set: some 33,000 sequences, median “E-score (-0.5 to 0.5)” near -0.016, cut for the highest 2% near 0.32. Some of the results follow.
# Target: T1, Stp1 (UniProt B3LFK1)
# T1 sequence: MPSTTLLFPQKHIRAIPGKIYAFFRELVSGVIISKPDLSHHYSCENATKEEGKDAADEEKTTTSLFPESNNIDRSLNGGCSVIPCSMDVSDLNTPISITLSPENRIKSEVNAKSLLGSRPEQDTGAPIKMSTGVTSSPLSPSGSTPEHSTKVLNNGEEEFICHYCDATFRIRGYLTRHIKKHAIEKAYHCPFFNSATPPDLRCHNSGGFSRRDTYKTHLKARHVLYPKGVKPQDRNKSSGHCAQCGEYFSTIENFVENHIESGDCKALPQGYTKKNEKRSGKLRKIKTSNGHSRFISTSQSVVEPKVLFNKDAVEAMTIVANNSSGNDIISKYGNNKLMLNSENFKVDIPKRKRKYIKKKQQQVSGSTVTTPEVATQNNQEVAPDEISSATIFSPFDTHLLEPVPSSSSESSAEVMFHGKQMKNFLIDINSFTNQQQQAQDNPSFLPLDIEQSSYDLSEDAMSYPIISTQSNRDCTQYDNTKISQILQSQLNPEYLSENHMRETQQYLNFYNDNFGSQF
# Test: PBM E-score (8-mer binding enrichment) (E-score (-0.5 to 0.5)); higher = stronger / more preferred TF binding; most listed sequences are background and not binding sites
# Conditions: protein concentration: 200 nM; construct: GST-full length
# How it was run: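 Masliner-normalised scans of fluorescent anti-GST signal were the basis for scoring. That signal came from GST-tagged yeast transcription factors applied at about 100-200 nM to double-stranded universal all-10-mer Agilent arrays on fresh or once-stripped slides. Each ungapped eight-base word, pooled with its reverse complement, received an E-score from the Universal PBM Analysis Suite.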
row,Sequence,PBM E-score
1,GCGAGCAA,-0.0847
2,AGCCGACC,-0.157
3,CATTAGCC,0.0474
4,CCACTGAA,0.0781
5,TCACCAAA,0.136
6,CTTTTAGC,-0.015
7,CGTTGAAA,0.0307
8,GCGTAAAA,0.139
9,ATGCGATG,-0.0343
10,GCTCTCTA,-0.0314
11,ACGAGATG,0.0243
12,TAGACCCA,-0.0742
13,AGGTACAC,-0.102
14,CCACGGGA,-0.0649
15,GATTATCC,-0.0707
16,CACCCACA,0.0668
17,CAGTGAGC,-0.0174
18,TCCTCCCA,-0.262
19,CCGCCAGG,-0.201
20,AATCTTGG,-0.0482
21,CGGCCGTA,0.37
22,CTCTAGCA,-0.169
23,AAAAAAAA,0.252
24,ACTGTAGC,-0.0579
25,AGGAAGGG,-0.0935

row,Sequence,PBM E-score
1,ACCCGAAC,-0.0629
2,TGCGACAA,0.0498
3,GAAGAAGC,-0.136
4,AGGGGTTG,-0.261
5,ATGGTACA,-0.236
6,ATTAGGGG,-0.269
7,ATAGCATA,0.0615
8,GCTACTAA,0.0928
9,AACGCGGA,0.0987
10,GGAGCCAA,-0.0874
11,GCCGGGGA,-0.184
12,CGCCCCCA,-0.353
13,AATTGGGC,0.0998
14,CCTAGTGC,0.135
15,AAGCAGAA,-2e-05
16,ACCCTACA,-0.0818
17,CATTCGAC,-0.0891
18,CCGCAGGC,0.265
19,CTAGCAAA,0.0489
20,AAGGAGAT,-0.248
21,ACGAGACT,-0.243
22,ACCCCTCC,-0.383
23,AAGCCACT,0.0282
24,ACTCAACT,0.00459
25,TCCACAAA,0.11

row,Sequence,PBM E-score
1,AATCCTAA,-0.0723
2,AATATCAT,0.237
3,AACGTCTG,0.0488
4,GATTTTCA,0.197
5,AGACAGTA,0.0158
6,AGGGGTAG,-0.323
7,GAAAGCTA,-0.205
8,ACGTATGA,0.15
9,GGTAACGA,-0.111
10,GGAATCCA,0.108
11,ACGATTTA,0.0942
12,CGGGGCAC,0.231
13,CCGGAATC,-0.297
14,CGTTCCCC,-0.0811
15,TGAATGCA,0.00939
16,CTACGGCC,0.126
17,AGGTTATG,-0.0463
18,AACAAATC,0.0549
19,GTCTACCA,-0.164
20,TGTCTCAA,-0.0662
21,CGCGCGTA,0.215
22,GCTATCAA,0.0278
23,TCTGGCAA,-0.0798
24,CGGCGAAG,0.292
25,GTATTGAA,0.0945

row,Sequence,PBM E-score
1,AGTTCTCA,0.0157
2,TATACCAA,0.213
3,AAAAAATA,0.141
4,ACAGTATA,0.0606
5,GCTACTCC,-0.253
6,CTGTAAAA,0.0877
7,GAAGCTAA,-0.0649
8,GATCTGGA,-0.147
9,AGCTCGAT,-0.0431
10,AATTCTCG,-0.0365
11,CCCCCGTC,-0.393
12,ACACCCTG,-0.214
13,ATTCTTAG,-0.00709
14,ACAAACTA,0.176
15,GGACGTCA,-0.181
16,GGCATCTA,0.295
17,GATTAACC,-0.0752
18,AATGCAAA,0.209
19,AGAACGCC,0.256
20,AATGTAAT,0.185
21,CCGCGTCC,0.296
22,GGCATGAA,0.232
23,AATCCGGG,-0.118
24,ACCCTGTC,-0.226
25,AGTAAGTA,0.14

row,Sequence,PBM E-score
1,CCGGCGAA,0.088
2,CGGTCCCA,-0.229
3,GTCACGTA,-0.14
4,CTCGCGAG,0.184
5,AATGTTGT,0.0132
6,AATAGATA,0.101
7,CGGCTACA,0.245
8,GCTTTTCA,-0.111
9,AGGCACTC,0.139
10,CGTCACGA,0.0354
11,CTCTCCCC,-0.316
12,ATACGTAA,0.153
13,CCAACCAG,-0.122
14,CGCAGGCA,0.197
15,CAAATGGG,-0.101
16,ATCGAGCA,-0.0488
17,ATGGTCTC,-0.204
18,GGAGCCAC,-0.246
19,ACTATTAT,0.0978
20,CCGCTGCG,0.0683
21,ACTGGTTC,-0.0557
22,GGGCACCA,0.056
23,CGGTCGCA,-0.199
24,GTTCCACA,-0.228
25,ATGGGTGA,-0.0293

row,Sequence,PBM E-score
1,CCGACACG,-0.0479
2,CTCTCTAC,0.00217
3,CACGCCGA,0.0798
4,AAAGACGA,0.0348
5,GGATCGCC,0.0502
6,AGGGAGAG,-0.299
7,GACAGGTA,-0.0762
8,GGATCAAA,0.0615
9,GGCTACAC,0.107
10,AGGACAAG,-0.0893
11,AATTTTCG,0.0788
12,CACAGCAC,0.0573
13,ACAAGTAC,0.0453
14,AAGCTGAT,0.153
15,CCCCGAAG,-0.137
16,CCTATAGA,-0.119
17,CGTATATA,0.167
18,CTCACAAG,-0.00272
19,GAGATCAA,0.0945
20,AAGACCAT,0.0176
21,CCGGGACC,-0.14
22,ATGTTTCA,0.0604
23,GAAGGGAC,-0.285
24,AACGCTAA,-0.131
25,CTTTGGTC,0.00451

row,Sequence,PBM E-score
1,CGGGATTC,0.167
2,GCTTGTAA,0.0149
3,CTAAATCC,0.0807
4,ATCCATGG,0.0254
5,AGTTCTCC,-0.181
6,CCTTGGTA,0.149
7,CATTGAGG,-0.186
8,AGGTAGGC,-0.175
9,AGCACTAA,0.132
10,CACGTCGA,-0.147
11,ATTCCATG,0.0428
12,CGAGGTCC,-0.183
13,AAACCTCT,-0.178
14,GACCATCC,-0.191
15,AAACTGGG,-0.188
16,CTATGCCC,-0.0982
17,ATTACGCA,0.06
18,GATATACA,-0.00348
19,ACTCCGTG,0.185
20,AGAGTCCG,-0.0927
21,ACCTTGTC,-0.19
22,AGAGTTCC,-0.201
